# From PubChem BioAssay AID463254 (National Center for Advancing Translational Sciences (NCATS), 2010)
# Among all 330,000 compounds or so, about 40 (0.01%) were called active. This list was built around the results that the source calls inconclusive (neither active nor inactive); the mix of calls is not that of the screen. Calls come from the whole dose curve; as a rule, active = well fitted inhibition curve with a large enough effect; inconclusive = small, poorly fitted or top-dose-only effect, or effect the other way; inactive = flat fitted curve, though single readings scatter. A potency beside an inconclusive call is a rough fit, not a confirmed value.
# Molecular target: Ubiquitin carboxyl-terminal hydrolase 2 (Homo sapiens) (UniProt O75604)
# UniProt O75604, sequence (O75604 whole entry, looked up): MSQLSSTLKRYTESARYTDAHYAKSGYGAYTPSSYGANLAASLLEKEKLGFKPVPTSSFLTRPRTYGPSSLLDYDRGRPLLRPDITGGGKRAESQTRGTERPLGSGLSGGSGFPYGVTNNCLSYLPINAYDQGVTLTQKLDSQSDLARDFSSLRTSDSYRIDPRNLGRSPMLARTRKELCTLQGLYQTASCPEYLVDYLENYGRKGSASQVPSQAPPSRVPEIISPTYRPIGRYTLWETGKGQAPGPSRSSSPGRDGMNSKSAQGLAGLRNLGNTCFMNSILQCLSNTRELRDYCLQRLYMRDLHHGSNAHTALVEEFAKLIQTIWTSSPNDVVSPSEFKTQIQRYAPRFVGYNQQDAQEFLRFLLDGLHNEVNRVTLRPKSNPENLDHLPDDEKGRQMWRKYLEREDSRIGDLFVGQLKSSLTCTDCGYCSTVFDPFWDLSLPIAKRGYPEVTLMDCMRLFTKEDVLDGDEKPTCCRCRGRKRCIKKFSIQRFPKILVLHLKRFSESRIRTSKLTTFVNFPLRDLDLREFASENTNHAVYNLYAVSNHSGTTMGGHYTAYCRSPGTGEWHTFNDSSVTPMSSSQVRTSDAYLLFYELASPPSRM
# Assay: qHTS Assay for Inhibitors of Ubiquitin-specific Protease USP2a Using CHOP2 as the Reporter
# Conditions: USP2 core, Ub-CHOP2 coupled fluorogenic reporter, 485/531; series mostly up to 38.3 µM
# Outline: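 Cell-free coupled assay: 10nM USP2 core preincubated 30min RT with compound in Tris-HCl pH 8.0/CaCl2/CHAPS buffer, then 25nM Ub-CHOP2 and 25nM reporter substrate; fluorescence (Ex 485/Em 531) read after 60min RT, normalized to NEM inhibition, concentration-response curves fitted.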
# Potency is the fitted concentration of half-maximal effect; tags give direction and shape of the fitted curve or compound fluorescence and quenching.
row,Structure (SMILES),Potency
1,COC(=O)C[n+]1cccc2ccccc21,"inconclusive: 12.6 µM [fluorescent, partial curve]"
2,CN(C)S(=O)(=O)c1ccc(C(=O)NCCN=C2NS(=O)(=O)c3ccccc32)cc1,"inconclusive: 22.4 µM [falling, single point]"
3,CC(C)CC(=O)N1CCC(N2CCN(c3ccccc3)CC2)CC1,inactive
4,CCCCCCCCCC[N+](C)(C)CC/C=C1/c2ccccc2Sc2ccc(Cl)cc21,"inconclusive: 20 µM [falling, single point]"
5,COc1ccccc1Nc1nc(NCCO)c2ccccc2n1,"inconclusive: 2.82 µM [falling, single point]"
6,Cc1nc(NC2=NCN(Cc3ccco3)CN2)nc2ccccc12,"inconclusive: 20 µM [falling, single point]"
7,COc1cc(/C=N/Nc2nc(=O)[nH]nc2C)cc(OC)c1O,inactive
8,O=C1Nc2ccccc2SC(c2ccccc2)C1O (stereo not given),"inconclusive: 22.4 µM [falling, single point]"
9,CCCCC(OC(=O)c1cc2occc2n1C)C(=O)NCC1CCCO1 (stereo not given),"inconclusive: 0.501 µM [falling, full curve]"
10,Cc1cc(/C=C2/C(=O)NN(c3ccccc3)C2=O)c(C)n1-c1cccc(O)c1,inactive
11,C=CCN1C=CC(=C/C=C(/C#N)C(=O)OCC)C=C1,"inconclusive: 11.2 µM [fluorescent, partial curve]"
12,CCOc1ccc(N=C2NC(=O)S/C2=C\c2ccc(N(C)C)cc2)cc1,inactive
13,CC1CCCCC1NC(=O)COC(=O)c1c2c(nc3ccccc13)/C(=C/c1ccco1)CC2 (stereo not given),"inconclusive: 25.1 µM [falling, single point]"
14,O=C(c1cccc(F)c1)N1CCN(S(=O)(=O)c2ccccc2)CC1,"inconclusive: 5.01 µM [falling, single point]"
15,COc1cccc(-c2csc(N3CCN(C(=S)Nc4ccccc4C)CC3)n2)c1,inactive
16,COC(=O)C1CCN(C(=O)COC(=O)CC(NC(N)=O)c2ccc(Cl)cc2)CC1 (stereo not given),"inconclusive: 28.2 µM [falling, single point]"
17,Cn1nc(CC(=O)NCc2ccc(F)cc2)c2ccccc2c1=O,"inconclusive: 28.2 µM [falling, single point]"
18,O=C(CN1CCCC1)Nc1ccccc1Sc1ccc(Cl)cc1,inactive
19,O=C(Nc1ccccc1)C1CCN(C(=O)c2ccco2)CC1,inactive
20,CC1=NN(c2ccc(C)cc2)C(=O)/C1=C/c1ccc(-c2cc([N+](=O)[O-])ccc2O)o1,"inconclusive: 28.2 µM [falling, single point]"
